The source of these data is article PMC9911399, “Two distinct binding modes provide the RNA-binding protein RbFox with extraordinary sequence specificity”.

T1: RBFOX1 RRM RbFoxmut (Fox-RRM*) (Homo sapiens, UniProt Q9NWB1 109-208, R118D;E147R;N151S;E152T)
T1 sequence: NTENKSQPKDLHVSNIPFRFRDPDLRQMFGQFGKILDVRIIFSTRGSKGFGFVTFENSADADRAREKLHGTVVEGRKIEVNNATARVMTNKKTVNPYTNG

B1: UGAUAGU (DNA:RNA)
RNA: GGGAGACCGGAAUUCAGAUUGUCCUGAUAGUUUAAAUCCCGUCGUAGCCACCA
DNA 1: CAATCTGAATTCCGGTCTCCC
DNA 2: TGGTGGCTACGACGGGATT
B2: AGGCGUA (DNA:RNA)
RNA: B1 RNA with U25A, A27G, U28C, A29G, G30U, U31A
DNA 1: CAATCTGAATTCCGGTCTCCC
DNA 2: TGGTGGCTACGACGGGATT
B3: AAUACAC (DNA:RNA)
RNA: GGGAGACCGGAAUUCAGAUUGUCCAAUACACUUAAAUCCCGUCGUAGCCACCA
DNA 1: CAATCTGAATTCCGGTCTCCC
DNA 2: TGGTGGCTACGACGGGATT
B4: AGGUCUC (DNA:RNA)
RNA: B3 RNA with A26G, U27G, A28U, A30U
DNA 1: CAATCTGAATTCCGGTCTCCC
DNA 2: TGGTGGCTACGACGGGATT
B5: UCGACAU (DNA:RNA)
RNA: B3 RNA with A25U, A26C, U27G, C31U
DNA 1: CAATCTGAATTCCGGTCTCCC
DNA 2: TGGTGGCTACGACGGGATT
B6: UUCCUGG (DNA:RNA)
RNA: B1 RNA with G26U, A27C, U28C, A29U, U31G
DNA 1: CAATCTGAATTCCGGTCTCCC
DNA 2: TGGTGGCTACGACGGGATT
B7: UGGGGCA (DNA:RNA)
RNA: B1 RNA with A27G, U28G, A29G, G30C, U31A
DNA 1: CAATCTGAATTCCGGTCTCCC
DNA 2: TGGTGGCTACGACGGGATT
B8: CUGGGCC (DNA:RNA)
RNA: B3 RNA with A25C, A26U, U27G, A28G, C29G, A30C
DNA 1: CAATCTGAATTCCGGTCTCCC
DNA 2: TGGTGGCTACGACGGGATT
B9: UGAAUAU (DNA:RNA)
RNA: B1 RNA with U28A, A29U, G30A
DNA 1: CAATCTGAATTCCGGTCTCCC
DNA 2: TGGTGGCTACGACGGGATT
B10: UUUUAUG (DNA:RNA)
RNA: B1 RNA with G26U, A27U, G30U, U31G
DNA 1: CAATCTGAATTCCGGTCTCCC
DNA 2: TGGTGGCTACGACGGGATT
B11: CUUGUUA (DNA:RNA)
RNA: B3 RNA with A25C, A26U, A28G, C29U, A30U, C31A
DNA 1: CAATCTGAATTCCGGTCTCCC
DNA 2: TGGTGGCTACGACGGGATT
B12: CCUCAGA (DNA:RNA)
RNA: B1 RNA with U25C, G26C, A27U, U28C, U31A
DNA 1: CAATCTGAATTCCGGTCTCCC
DNA 2: TGGTGGCTACGACGGGATT
B13: CUCUGCU (DNA:RNA)
RNA: B1 RNA with U25C, G26U, A27C, A29G, G30C
DNA 1: CAATCTGAATTCCGGTCTCCC
DNA 2: TGGTGGCTACGACGGGATT
B14: UCUUUCA (DNA:RNA)
RNA: B1 RNA with G26C, A27U, A29U, G30C, U31A
DNA 1: CAATCTGAATTCCGGTCTCCC
DNA 2: TGGTGGCTACGACGGGATT
B15: GGAGGUA (DNA:RNA)
RNA: B1 RNA with U25G, U28G, A29G, G30U, U31A
DNA 1: CAATCTGAATTCCGGTCTCCC
DNA 2: TGGTGGCTACGACGGGATT
B16: GUCUCUU (DNA:RNA)
RNA: B1 RNA with U25G, G26U, A27C, A29C, G30U
DNA 1: CAATCTGAATTCCGGTCTCCC
DNA 2: TGGTGGCTACGACGGGATT
B17: UAAUACA (DNA:RNA)
RNA: B1 RNA with G26A, G30C, U31A
DNA 1: CAATCTGAATTCCGGTCTCCC
DNA 2: TGGTGGCTACGACGGGATT
B18: GUGGAUU (DNA:RNA)
RNA: B1 RNA with U25G, G26U, A27G, U28G, G30U
DNA 1: CAATCTGAATTCCGGTCTCCC
DNA 2: TGGTGGCTACGACGGGATT
B19: CUAGGUC (DNA:RNA)
RNA: B3 RNA with A25C, A26U, U27A, A28G, C29G, A30U
DNA 1: CAATCTGAATTCCGGTCTCCC
DNA 2: TGGTGGCTACGACGGGATT
B20: AGUCUAG (DNA:RNA)
RNA: B3 RNA with A26G, A28C, C29U, C31G
DNA 1: CAATCTGAATTCCGGTCTCCC
DNA 2: TGGTGGCTACGACGGGATT
B21: UGGUCCA (DNA:RNA)
RNA: B1 RNA with A27G, A29C, G30C, U31A
DNA 1: CAATCTGAATTCCGGTCTCCC
DNA 2: TGGTGGCTACGACGGGATT
B22: AUGGGCU (DNA:RNA)
RNA: B3 RNA with A26U, U27G, A28G, C29G, A30C, C31U
DNA 1: CAATCTGAATTCCGGTCTCCC
DNA 2: TGGTGGCTACGACGGGATT
B23: CAAUAUU (DNA:RNA)
RNA: B1 RNA with U25C, G26A, G30U
DNA 1: CAATCTGAATTCCGGTCTCCC
DNA 2: TGGTGGCTACGACGGGATT
B24: CGGCGCG (DNA:RNA)
RNA: B1 RNA with U25C, A27G, U28C, A29G, G30C, U31G
DNA 1: CAATCTGAATTCCGGTCTCCC
DNA 2: TGGTGGCTACGACGGGATT
B25: GAUGUAG (DNA:RNA)
RNA: B3 RNA with A25G, A28G, C29U, C31G
DNA 1: CAATCTGAATTCCGGTCTCCC
DNA 2: TGGTGGCTACGACGGGATT
B26: UGGGACU (DNA:RNA)
RNA: B1 RNA with A27G, U28G, G30C
DNA 1: CAATCTGAATTCCGGTCTCCC
DNA 2: TGGTGGCTACGACGGGATT
B27: UAUAAAC (DNA:RNA)
RNA: B3 RNA with A25U, C29A
DNA 1: CAATCTGAATTCCGGTCTCCC
DNA 2: TGGTGGCTACGACGGGATT
B28: AUCGCUA (DNA:RNA)
RNA: B3 RNA with A26U, U27C, A28G, A30U, C31A
DNA 1: CAATCTGAATTCCGGTCTCCC
DNA 2: TGGTGGCTACGACGGGATT
B29: CCUGUCC (DNA:RNA)
RNA: B3 RNA with A25C, A26C, A28G, C29U, A30C
DNA 1: CAATCTGAATTCCGGTCTCCC
DNA 2: TGGTGGCTACGACGGGATT
B30: UAGUAAC (DNA:RNA)
RNA: B3 RNA with A25U, U27G, A28U, C29A
DNA 1: CAATCTGAATTCCGGTCTCCC
DNA 2: TGGTGGCTACGACGGGATT
B31: AAGACGA (DNA:RNA)
RNA: B3 RNA with U27G, A30G, C31A
DNA 1: CAATCTGAATTCCGGTCTCCC
DNA 2: TGGTGGCTACGACGGGATT

Residue numbers refer to the chain shown, from its start. Some of the results follow.

The target in this assay is T1, RBFOX1 RRM RbFoxmut (Fox-RRM*). Briefly: EMSA; HiTS-Eq, 1 nM pool, 10 min; buffer printed only for the single-RNA assays: 10 mM Tris pH 7.5, 150 mM NaCl, 3.4 mM EDTA, 0.001% NP-40, 30 C. As to conditions: tags: His6 N-terminal (pET28a); label: 5' 32P. In a few lines: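 Relative association constants, normalised to the cognate motif, were derived by comparing read counts of each RNA species with those of the control reaction. The RNA sequenced was the free fraction, separated by 8% native PAGE after a 10 min equilibration in 50 µL of 1 nM 5′-radiolabelled RNA (7 randomized nucleotides) with increasing concentrations of purified wild-type or mutant RbFox RRM.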
Take B1: the binding signal is 0.125 KA relative to UGCAUGU.
For B2, the binding signal was 0.166 KA relative to UGCAUGU.
In the case of B3, the binding signal was 0.0739 KA relative to UGCAUGU.
For the molecule B4, the binding signal was 0.0995 KA relative to UGCAUGU.
Turning to B5, the binding signal is 0.0572 KA relative to UGCAUGU.
The figure for B6 is 0.0746 KA relative to UGCAUGU; for B7 it is 0.101 KA relative to UGCAUGU; for B8 it is 0.275 KA relative to UGCAUGU.
As to B9, the binding signal is 0.0814 KA relative to UGCAUGU.
For B10 the value was 0.149 KA relative to UGCAUGU; for B11, 0.134 KA relative to UGCAUGU; for B12, 0.109 KA relative to UGCAUGU.
The figure for B13 is 0.101 KA relative to UGCAUGU; for B14 it is 0.0623 KA relative to UGCAUGU.
The figure for B15 is 0.121 KA relative to UGCAUGU; for B16 it is 0.0731 KA relative to UGCAUGU.
Turning to B17, the binding signal is 0.0677 KA relative to UGCAUGU.
For B18 the value was 0.1 KA relative to UGCAUGU; for B19, 0.133 KA relative to UGCAUGU; for B20, 0.102 KA relative to UGCAUGU.
Consider B21, for which the binding signal is 0.122 KA relative to UGCAUGU.
Regarding B22, the binding signal is 0.116 KA relative to UGCAUGU.
Consider B23, for which the binding signal was 0.088 KA relative to UGCAUGU.
The figure for B24 is 0.155 KA relative to UGCAUGU.
Regarding B25, the binding signal was 0.115 KA relative to UGCAUGU.
For B26 the value was 0.078 KA relative to UGCAUGU; for B27, 0.0544 KA relative to UGCAUGU.
Consider B28, for which the binding signal is 0.113 KA relative to UGCAUGU.
Take B29: the binding signal was 0.074 KA relative to UGCAUGU.
The figure for B30 is 0.0875 KA relative to UGCAUGU; for B31 it is 0.0676 KA relative to UGCAUGU.
